# In the supplement of paper PMC3334620:
# In all, about 33,000 sequences were measured (“E-score (-0.5 to 0.5)”: median about -0.041, highest 2% from about 0.37 on). The list shows a part of the results.
# Molecular target: T1, Ecm22 (UniProt Q05958)
# T1 sequence: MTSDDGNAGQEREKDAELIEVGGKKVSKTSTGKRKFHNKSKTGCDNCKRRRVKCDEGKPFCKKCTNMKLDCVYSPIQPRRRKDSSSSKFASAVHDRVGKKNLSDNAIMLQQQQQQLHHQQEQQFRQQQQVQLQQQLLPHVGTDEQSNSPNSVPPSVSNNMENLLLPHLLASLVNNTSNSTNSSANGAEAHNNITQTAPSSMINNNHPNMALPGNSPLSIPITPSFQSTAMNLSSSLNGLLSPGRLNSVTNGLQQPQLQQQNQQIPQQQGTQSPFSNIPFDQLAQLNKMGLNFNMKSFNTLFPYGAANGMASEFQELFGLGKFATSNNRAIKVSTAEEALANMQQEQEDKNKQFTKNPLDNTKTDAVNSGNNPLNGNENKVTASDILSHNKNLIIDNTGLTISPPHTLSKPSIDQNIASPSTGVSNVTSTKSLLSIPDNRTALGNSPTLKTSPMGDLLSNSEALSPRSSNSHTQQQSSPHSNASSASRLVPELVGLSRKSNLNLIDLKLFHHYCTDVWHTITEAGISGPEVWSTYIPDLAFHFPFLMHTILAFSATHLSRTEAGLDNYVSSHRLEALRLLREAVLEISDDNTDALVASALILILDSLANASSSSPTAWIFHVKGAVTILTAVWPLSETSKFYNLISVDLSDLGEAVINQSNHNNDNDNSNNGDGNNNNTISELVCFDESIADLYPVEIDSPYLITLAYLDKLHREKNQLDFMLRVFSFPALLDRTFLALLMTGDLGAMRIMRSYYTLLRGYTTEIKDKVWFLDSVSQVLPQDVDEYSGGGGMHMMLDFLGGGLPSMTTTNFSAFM
# Assay: PBM E-score (8-mer binding enrichment) (E-score (-0.5 to 0.5)); higher = stronger / more preferred TF binding; most listed sequences are background and not binding sites
# Conditions: protein concentration: 200 nM; construct: GST-full length
# How it was run: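 Masliner-normalised scans of fluorescent anti-GST signal were the basis for scoring. That signal came from GST-tagged yeast transcription factors applied at about 100-200 nM to double-stranded universal all-10-mer Agilent arrays on fresh or once-stripped slides. Each ungapped eight-base word, pooled with its reverse complement, received an E-score from the Universal PBM Analysis Suite.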
row,Sequence,PBM E-score
1,AGAGTTCA,-0.245
2,CTAAGTTC,0.0786
3,AACATATA,0.0873
4,AGGGCTGG,-0.23
5,CGGGGGGA,-0.227
6,GACCCGTC,-0.0698
7,GTTTGGAA,0.17
8,CGCTTCCA,-0.0544
9,ATTTTACC,0.06
10,CGCGACAC,0.0771
11,GGACAGAC,-0.0959
12,ATAGGCGG,-0.0579
13,CGAGGAAG,0.175
14,ACCACGTA,0.214
15,GAAGGATC,-0.11
16,AGTGCGTA,0.14
17,GACAGTGC,0.0371
18,ACTTCTCA,-0.145
19,CAATACCG,-0.0825
20,CGTGAGCA,-0.0373
21,CCTTATGA,-0.00603
22,CCTTTCAG,-0.0395
23,CAAGTTAC,-0.0149
24,GGAGCGCA,-0.22
25,ATCATCTG,-0.00905

row,Sequence,PBM E-score
1,ACCATTTG,-0.0622
2,AAGATTTC,0.0425
3,TCAGACCA,-0.135
4,GAACTAAA,0.0893
5,AGCTTGAA,-0.209
6,CAGTCCCG,-0.0674
7,CGTGTCAA,-0.282
8,GCGATTAA,0.124
9,AACTATAT,0.0975
10,AGTAGCTG,-0.0961
11,CGTGCTAG,-0.0992
12,GAGGCGTA,0.155
13,GCGCATTA,0.0458
14,AGATCTTA,-0.0601
15,GTTACTCA,0.0484
16,CTTGCGCA,0.0373
17,CCGACGGC,0.129
18,CGGGATGC,-0.00151
19,CGTGATGC,-0.0688
20,CGACGGAC,0.109
21,GATGTGTA,0.117
22,CCATTGGA,-0.162
23,CTTTGCGC,0.00514
24,ATCAAGCG,-0.00695
25,CATTTCGC,0.218

row,Sequence,PBM E-score
1,AAAATGAA,-0.0273
2,ACAATGTG,-0.0558
3,GTTTGAAA,-0.00051
4,CGCTTACC,0.269
5,GCCACATA,-0.183
6,ACATGCGT,0.0355
7,CCTTAACG,0.261
8,AAATGCGG,0.0727
9,CACCACCA,-0.196
10,CTGCACCC,-0.00101
11,CGAGGAAA,0.103
12,ATGACGGC,-0.236
13,CTATTTTC,-0.0389
14,GCGCTGAC,-0.288
15,CATATACA,0.0321
16,GGATGCCC,-0.181
17,ACCGAGCT,0.235
18,CTAGGTAC,0.122
19,CGCAGACA,-0.0696
20,CATAGTGA,-0.00227
21,ATGGTCAA,-0.043
22,CATCCCAG,-0.0467
23,ATATTCCA,-0.0712
24,AAGGTACA,-0.0107
25,CGCTAAAG,0.138

row,Sequence,PBM E-score
1,AAAAGTCA,-0.236
2,CAAAGAGA,-0.148
3,ACTTGTGC,0.0182
4,TCGTTGAA,0.31
5,ATAACTCC,-0.0635
6,AAATCCTC,-0.132
7,GCTGGCCC,-0.269
8,CTTTACAC,0.0711
9,AGATATGC,-0.153
10,CAGCAGAG,-0.187
11,AAGCGTCC,-0.0106
12,AAAGCGAC,0.17
13,GGGAATAA,0.0656
14,ATAAAAAG,0.0542
15,ACGACCCG,0.271
16,ACGGGGGA,0.16
17,CCATCGCC,-0.203
18,CACGGTGC,-0.107
19,CCTATACA,-0.00901
20,CGTCCCCA,-0.228
21,GGATTTGA,0.12
22,AATACGCC,-0.0676
23,AAAGCACT,0.0197
24,CTCTGCAC,-0.0504
25,CCGCTATC,0.0478

row,Sequence,PBM E-score
1,GACGGTTA,-0.224
2,ACAAGGAT,-0.127
3,GAATAATA,0.136
4,ACGGAACC,0.218
5,CTACGTAC,0.27
6,CTGGTGAA,-0.106
7,CATTATCG,0.147
8,ATCGGTCA,0.0929
9,GGTATCAC,-0.101
10,GGCATCAC,-0.0854
11,ATACACAT,0.0154
12,GTACAGCA,0.233
13,ACAGATAC,0.15
14,AGGTTTTC,0.199
15,AATTCGGT,0.216
16,ACCTTAAA,-0.126
17,AGCCTAGG,-0.288
18,GTCACCTA,-0.102
19,GTCAGTCA,-0.193
20,CTGTATAC,0.207
21,ACTTAATC,-0.0762
22,ACGATTGC,0.302
23,GGGACCTA,0.0747
24,CGCACACG,-0.0118
25,AGAGTCTA,0.00529

row,Sequence,PBM E-score
1,ATTTAAAA,-0.0732
2,ATTGTGAC,-0.145
3,GTCAAGAA,0.0699
4,CTGAGGGA,-0.0479
5,GCAGTTTA,-0.0818
6,GTACGCAA,0.25
7,CCCGGCAC,-0.159
8,CCCAAGTA,-0.143
9,CTAGCAGA,-0.0379
10,AATCAAGG,0.0121
11,AGCACCGC,0.118
12,AGCTGAAG,-0.139
13,GGAGTGAA,-0.0263
14,GTGTCGGA,0.0575
15,TCATTCAA,-0.0805
16,AGGTGTTG,-0.119
17,TAGAAGCA,-0.173
18,ACCGCACC,0.0901
19,AACCATAA,-0.167
20,CCCAAACC,-0.0875
21,CAATAATA,-0.0222
22,AAGTGGAA,-0.064
23,CAGCCTTA,-0.323
24,CGAACCTC,0.146
25,AACGGTGC,0.27

row,Sequence,PBM E-score
1,ACTGGGCC,-0.247
2,ACGTCCCG,-0.0251
3,CAAAATCG,0.11
4,GATTACCC,-0.215
5,GATAGGCC,-0.0611
6,CCTAAGGC,-0.359
7,GACCCGAA,0.0537
8,GATTCGCA,0.227
9,ACCATGCA,-0.228
10,CAATCATG,-0.0538
11,AGTTCTGG,-0.0431
12,GCGAGACA,0.161
13,CAATCATC,-0.11
14,AAGCCCAC,-0.0242
15,CTTCGCCA,-0.169
16,ACCGCCAT,-0.129
17,ACAATGGC,-0.0717
18,GTACTGAA,0.248
19,CTGGCCGA,0.051
20,ACGCGTCC,-0.0747
21,AGCATTTA,0.0779
22,CTGGCAGC,-0.158
